We go through 60 compounds from PubChem BioAssay AID485344 (National Center for Advancing Translational Sciences (NCATS), 2010).

SMILES strings stand for the structures. The whole screen tested about 340,000 compounds, of which about 6,900 (2%) were called active. Cut-off read from the data, not from the text of the source: active = inhibition above about 30%; inactive = below that, where a call was filed. The list shows a part of the results, in another mix than the full data. Where no call is shown, the source filed none. The source holds several records for some structures; these can differ, active in one and inactive in another.

This experiment addresses D(2) dopamine receptor (Homo sapiens) (UniProt P14416). Briefly: HTS Assay for Allosteric Antagonists of the Human D2 Dopamine Receptor: Primary Screen for Antagonists. Note: 0% is about no effect. Particulars: HEK293 TREx D2 cells, calcium flux, dopamine EC80; at 10 µM; stronger effect = higher value. From the text: NIH Chemical Genomics Center [NCGC] NIH Molecular Libraries Probe Centers Network [MLPCN] MLPCN Grant: NS064831-01 Assay Submitter (PI): David Sibley Dopamine receptors (DARs) are involved in the etiology and/or therapy of a number of neuropsychiatric and endocrine disorders. For instance, all receptor-based antiparkinsonian drugs work via stimulating the D2 DAR subtype whereas all FDA-approved antipsychotic agents are antagonists of this receptor. […] There are three different types of allosteric modulators that we are seeking, two of which will stimulate or augment receptor signaling, allosteric agonists and potentiators, while the third, allosteric antagonists, will attenuate receptor signaling. The present primary screening assay measures compound antagonism after an EC80 addition of dopamine by tracking calcium flux in a […], inducible Hek293 Trex D2 cell line.
Sequence of UniProt P14416 (P14416 whole entry, looked up): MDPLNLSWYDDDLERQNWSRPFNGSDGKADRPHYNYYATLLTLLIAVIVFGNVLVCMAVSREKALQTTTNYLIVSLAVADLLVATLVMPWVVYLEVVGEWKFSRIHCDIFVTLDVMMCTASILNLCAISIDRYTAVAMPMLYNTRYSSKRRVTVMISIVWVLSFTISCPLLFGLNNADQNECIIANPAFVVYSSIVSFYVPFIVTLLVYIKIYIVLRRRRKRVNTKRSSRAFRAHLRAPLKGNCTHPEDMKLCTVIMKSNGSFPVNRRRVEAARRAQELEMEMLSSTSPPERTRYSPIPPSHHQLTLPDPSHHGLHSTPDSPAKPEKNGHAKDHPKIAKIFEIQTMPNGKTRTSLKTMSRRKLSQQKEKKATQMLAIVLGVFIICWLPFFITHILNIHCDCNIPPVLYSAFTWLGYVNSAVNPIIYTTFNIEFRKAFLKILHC
Freshly passaged cells are plated in 1536 well black, clear bottom plates at a density of 4000 cells/well in 3 ul of complete media containing 1x tetracycline inducer. After an overnight incubation at 30 C in 5% CO2, cells are loaded with 2 ul of the no wash Calcium Assay Kit (ABD Bioquest) and incubated at room temperature for 30 to 90 minutes. Agonist read: A 10 cycle (1 second/cycle) baseline measurement is taken and then the FDSS online 1536 pintool delivers 23 nl of compound library (as well as dopamine controls) to the plate. The plate is measured for kinetically at 1 cycle/sec for 180 seconds. Following the 180 second read, 1 ul of an EC80 (negative modulation assay) is delivered by an onboard pipette head. Measurements are taken kinetically for an additional 180 seconds.
For the compound `O=C(Nc1sc2c(c1C(=O)NCc1ccccc1)CCCC2)c1cc(=O)c2ccccc2o1`, the inhibition (in general, the relative decrease from the control value, in per cent) was 15.8%.

For `Cc1nc(-c2ccccc2)sc1CCNC(=O)C(=O)Nc1ccc(F)c(Cl)c1`, the inhibition is -14.4%.

For the compound `NC(=O)c1ccccc1NC(=O)CN1c2ccccc2S(=O)(=O)c2ccccc21`, the inhibition worked out at 1.57%.

Take `Cc1ccc(C)c(N2CCN(C(=O)c3ccc4c(=O)n(CCc5ccccc5)c(=O)[nH]c4c3)CC2)c1`: the inhibition came to 4.89%.

With `COCCc1nn2c(=O)cc(COC(=O)c3ccccc3C)nc2s1`, the inhibition turned out to be 7.86%.

`CCCSCCCNC(=O)CN1C(=O)COc2ccc(S(=O)(=O)N3CCCC3)cc21`: the inhibition is -10%.

Turning to `O=C(Nc1cc(-c2ccc(Cl)cc2)no1)c1ccc(F)cc1`, the inhibition was -0.455%.

`COc1ccc(CC(C)N2CCN(c3ccccc3OC)CC2)cc1OC` (stereo not given): the inhibition was active: 88.6%.

In the case of `CCOC(=O)c1[nH]c2c(c1Cc1ccccc1OC)C(=O)CC(c1ccccc1)C2` (stereo not given), the inhibition was determined as 10.2%.

Take `CCCCn1c(=O)c2oc3ccccc3c2n(Cc2ccccc2C)c1=O`: the inhibition turned out to be 7.05%.

For the compound `COc1ccc(S(=O)(=O)N(CC(=O)Nc2ccccc2Cl)Cc2ccccc2)cc1`, the inhibition is -12%.

For `O=C(Nc1cccc(Cl)c1)c1cc(-c2ccc3c(c2)OCO3)on1`, the inhibition was found to be 9.36%.

On to `Cc1ccc(CCNC(=O)CN2C(=O)COc3ccc(S(=O)(=O)N4CCCCCC4)cc32)cc1`, for which the inhibition was -7.2%.

As for `COc1cc(OC)cc(C(=O)Nc2ccc3nc4n(c(=O)c3c2)CCCCC4)c1`, the inhibition is -10.3%.

In the case of `COc1ccccc1C(=O)Oc1c(Sc2ccccc2)c(C)nn1-c1ccccc1`, the inhibition is -11.8%.

As to `COc1ccc(NS(=O)(=O)c2ccc3[nH]c(=O)ccc3c2)cc1OC`, the inhibition was -25.8%.

As to `COc1cccc(-n2nnc(-c3nc(-c4cccs4)no3)c2N)c1`, the inhibition was 0.597%.

As for `CCOc1ccc(S(=O)(=O)Nc2cccc(OC)c2)c2cccnc12`, the inhibition is -8.64%.

Turning to `COc1cc(NC(=O)CCN2CCN(c3ccccc3F)CC2)cc(OC)c1`, the inhibition is active: 40.2%.

Turning to `O=C1CS(=O)(=O)C2(C(=O)N(Cc3ccccc3)c3ccccc32)N1c1ccc(F)c(Cl)c1` (stereo not given), the inhibition is 9.56%.

Turning to `CCOC(=O)CSc1nc2cc(OC)c(OC)cc2c2nc(-c3ccccc3)nn12`, the inhibition was 4.88%.

With `COC(=O)c1sccc1S(=O)(=O)N(CC(=O)NCc1ccc(C)cc1)c1ccc(C)c(C)c1`, the inhibition is 17.5%.

As for `CCOC(=O)C1=C(C)N=C2SCCC(=O)N2C1c1ccc(OCc2ccccc2)c(OC)c1` (stereo not given), the inhibition amounted to 4.26%.

For the compound `Cc1cc(NC(=O)c2cc(Cl)ccc2Cl)ccc1-c1cc2ccccc2oc1=O`, the inhibition was -15.8%.

As to `CC(=O)c1c(C)oc2c1cc(NS(=O)(=O)c1c(C)cc(C)cc1C)c1ccccc12`, the inhibition turned out to be 8.61%.

As for `CCC1CCC(N2CCN(c3ccccc3F)CC2)CC1` (stereo not given), the inhibition is active: 36.7%.

On to `NS(=O)(=O)c1ccc(NC(=O)COc2ccc(S(=O)(=O)NC3CCCCC3)cc2)cc1`, for which the inhibition is -6.86%.

With `CCN(CC)C(=O)Cn1c(=O)n(Cc2ccc(C(=O)NCCCOC)cc2)c(=O)c2ccccc21`, the inhibition was 8.01%.

`CCn1c2c(c(=O)n3ncc(C(=O)N4CCN(c5ccc(C(C)=O)cc5)CC4)c13)CN(Cc1ccc(OC)cc1)CC2`: the inhibition is -1.79%.

Take `Cc1ccc(C)c(N2C(=O)N(Cc3cccc(C(F)(F)F)c3)c3ccccc3S2(=O)=O)c1`: the inhibition came to 3.17%.

`COc1ccc(F)cc1S(=O)(=O)Nc1ccc2c(c1)CCCN2C(=O)c1cccs1`: the inhibition is -6.94%.

On to `CC(=O)c1cccc(NC(=O)[C@H]2O[C@@H]3OC(C)(C)O[C@@H]3[C@H]3OC(C)(C)O[C@H]32)c1`, for which the inhibition turned out to be 8.93%.

With `C=CCn1c(SCCCC)nc(O)cc1=O`, the inhibition was active: 30.8%.

With `COc1ccc(-c2nc3scc(CCNS(=O)(=O)c4ccc(Oc5ccccc5)cc4)n3n2)cc1`, the inhibition is 11%.

With `CCOC(=O)c1ccc(NC(=O)C(C)Sc2nc(=O)cc(N)n2CCc2ccccc2)cc1` (stereo not given), the inhibition stood at 6.19%.

As to `COc1ccc(OCC(=O)N(Cc2sccc2C)C2CCS(=O)(=O)C2)cc1` (stereo not given), the inhibition was -1.22%.

As to `COc1ccc(-c2nnc(SCC(=O)N3CCc4ccccc43)o2)cc1OC`, the inhibition came out at 5.44%.

With `CCN(CC)CCCNC(=O)c1cn(CC(C)C)c(=O)c2c1c1ccccc1n2C`, the inhibition was determined as 22.6%.

On to `COc1ccccc1Nc1c2c(nc3ccc(NC(=O)c4ccccc4F)cc13)CCCC2`, for which the inhibition amounted to 2.48%.

As for `COc1ccc(OC)c(C(=O)CSc2ncc3c(n2)-c2ccccc2N(Cc2ccccc2C)S3(=O)=O)c1`, the inhibition is -3.96%.

Turning to `COc1cc2[nH]c(=O)n(CCC(=O)NCCCN3CCN(c4ccccc4F)CC3)c(=O)c2cc1OC`, the inhibition is active: 95.8%.

On to `Cc1cc2c(cc1NC(=O)c1ccccc1Cl)n(C)c(=O)c(=O)n2C`, for which the inhibition is -8.04%.

On to `Cc1cccc(CCn2c(=O)c3ccccc3n(CC(=O)Nc3ccccc3F)c2=O)c1`, for which the inhibition amounted to 1.06%.

`Cc1ccc(C)c(N2CCN(CCCNC(=O)c3cnn(-c4ccccc4)c3C3CCN(C(=O)OC(C)(C)C)CC3)CC2)c1`: the inhibition is -9.59%.

For `CCN(Cc1ccccc1)Cc1c(O)ccc2c(=O)c(-c3ccc(Cl)cc3)c(C(F)(F)F)oc12`, the inhibition is -6.42%.

Turning to `O=C(NCc1ccccc1Cl)c1c2c(nc3ccccc13)C(=O)N(C1CCCCC1)C2`, the inhibition came to 5.41%.

For `CCCCC(=O)Nc1ccc(OCc2cc(=O)n3c(C)csc3n2)cc1`, the inhibition is 9.83%.

As for `COC(=O)CCCCCn1c(-c2ccccc2)cn2c3c(=O)n(C)c(=O)n(C)c3nc12`, the inhibition was -6.36%.

On to `COCCCNC(=O)c1ccc(CS(=O)(=O)c2ccccc2OC)o1`, for which the inhibition was active: 32.9%.

For the compound `O=C(Cn1nc(-c2ccc(Cl)cc2)c2ccccc2c1=O)Nc1cccc(C(F)(F)F)c1`, the inhibition was -15.2%.

For the compound `CCCCCCCCC(=O)N/N=C(\C)c1ccc(O)cc1O`, the inhibition is active: 49%.

As to `O=C(NC1CCN(Cc2ccc(Cl)c(Cl)c2)CC1)c1ccccc1`, the inhibition is active: 81%.

For the compound `Cn1c(=O)c(=O)n(C)c2cc(C(=O)NCc3ccccc3Cl)ccc21`, the inhibition is -1.92%.

`COC(=O)c1scc(-c2ccc(C)cc2)c1S(=O)(=O)N1CCN(c2ccc(C)cc2C)CC1`: the inhibition is -1.27%.

On to `COc1cccc(Nc2nc3ccccc3c3nncn23)c1`, for which the inhibition was -1.16%.

As for `COc1ccc(C(CNC(=O)c2oc3cc(C)c(Cl)cc3c2C)N2CCCCC2)cc1` (stereo not given), the inhibition was -4.09%.

In the case of `Cc1ccc(C(=O)NC(=S)NNC(=O)c2ccc([N+](=O)[O-])cc2)cc1`, the inhibition was active: 33.2%.

With `COCCNC(=O)CCc1c(C)n(C)c2cc(-c3cc(OC)c(OC)c(OC)c3)nn2c1=O`, the inhibition was 10.6%.

As to `CC1CCN(S(=O)(=O)c2ccc3nc(NCc4ccccc4)ccc3c2)CC1`, the inhibition came to 9.15%.

`COc1ccc(NS(=O)(=O)c2ccc(-c3cnc(C4CC4)o3)cc2)cc1Cl`: the inhibition is -3.67%.
